Test results: paper PMC7819943, “Rice protein-binding microarrays: a tool to detect cis-acting elements near promoter regions in rice”
The list shows a part of the results.

target: T1, OsWOX13 (Oryza sativa, UniProt Q5QMM3 1-267); experiment: protein-binding microarray (RPBM); PBS, 2% BSA, 51.3 ng/ul salmon testes DNA, 50 uM zinc acetate, 200 nM TF, 25 C, 1 h; high values mean tight binding; details: protein: recombinant; tags: N-terminal polyhistidine and DsRed monomer fusion (pET32a); label: CyDye5-dUTP incorporated in the synthesized complementary strand; 3' TTTTT single-stranded linker to array surface; dsDNA, one strand shown
T1 sequence: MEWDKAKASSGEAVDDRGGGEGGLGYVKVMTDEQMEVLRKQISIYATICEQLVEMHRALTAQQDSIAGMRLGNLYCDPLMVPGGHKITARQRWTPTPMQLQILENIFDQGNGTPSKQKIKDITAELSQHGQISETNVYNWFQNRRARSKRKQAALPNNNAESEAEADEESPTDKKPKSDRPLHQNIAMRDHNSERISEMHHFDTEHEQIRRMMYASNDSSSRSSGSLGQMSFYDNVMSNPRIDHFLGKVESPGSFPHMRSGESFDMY
How it was run: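 Binding signal here means per-feature fluorescence intensity in arbitrary units. The values were read on an Axon 4000B scanner after a custom Agilent array, double-stranded by primer extension with Cy5-dUTP, was incubated with 200 nM protein at 25 °C for 1 h in PBS with 2% BSA, salmon testes DNA and 50 µM zinc acetate, then washed. The proteins were transcription factors with an N-terminal polyhistidine tag and DsRed, expressed in E. coli BL21-CodonPlus and purified on Ni–NTA.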

| Sequence | binding signal |
| --- | --- |
| ACCAATTACACCCTAACATGCACACATTATCCCATACTGCCGGAGTCACCTAGTGCAG | 5580 fluorescence intensity (a.u.) |
| CAAAATTATTGGTTGTGTCAAAGCCCAGTTCCGGTTTTGACGGAGTCACCTAGTGCAG | 16300 fluorescence intensity (a.u.) |
| TTGGCTATTAATTTGGCTATAGATGATTTGGAGCTAGTAGCGGAGTCACCTAGTGCAG | 6500 fluorescence intensity (a.u.) |
| ATCTCACTCTCCAATTTAAATTTTGGTAATTTTGAGCAAACGGAGTCACCTAGTGCAG | 9640 fluorescence intensity (a.u.) |
| AATAATTAATTGGATATGATGTACTCTATATTTCTTATATCGGAGTCACCTAGTGCAG | 51400 fluorescence intensity (a.u.) |
| TACTTTCGTGATTATGATATTATATTAGAGTCGTTTAGAACGGAGTCACCTAGTGCAG | 7640 fluorescence intensity (a.u.) |
| AATTAAGTATGATTGTGCATTACGGGCACCTAAAGTTGTGCGGAGTCACCTAGTGCAG | 6430 fluorescence intensity (a.u.) |
| GCTATGATTTGACAATGTGATGGTACAGTAAACATTTGCTCGGAGTCACCTAGTGCAG | 31400 fluorescence intensity (a.u.) |
| GATCAATCATCTTAAACTTTCATATTATCAGCTAGTAGATCGGAGTCACCTAGTGCAG | 30900 fluorescence intensity (a.u.) |
| TTAGATTGAACCGCTTCAAACCAGTGGTTCAACACTTTAACGGAGTCACCTAGTGCAG | 27000 fluorescence intensity (a.u.) |
| AATGACAACTAATTTTAAGATGGAGGGAGTATGTTAGTATCGGAGTCACCTAGTGCAG | 8570 fluorescence intensity (a.u.) |
| GTGATTACGATCAGGCAGAGTGGTACACAGGTACTGTAGTCGGAGTCACCTAGTGCAG | 4370 fluorescence intensity (a.u.) |
| GTATCAGGCCATAATTAGTTCATTACCATACAATTACCATCGGAGTCACCTAGTGCAG | 6390 fluorescence intensity (a.u.) |
| ATTAATCATCATTTATCTCATTCCGTTGTTAAAACCAAATCGGAGTCACCTAGTGCAG | 3710 fluorescence intensity (a.u.) |
| ATTATTGAACGAATGATTATCGTAGATTATACATCTAGCCCGGAGTCACCTAGTGCAG | 28400 fluorescence intensity (a.u.) |
| TTGATTCCGATAAATTTAATTGGTTTATGTAAACTTAAGCCGGAGTCACCTAGTGCAG | 32400 fluorescence intensity (a.u.) |
| GTCTGAGTTAATTTATGCTTTTCTAATTACAATAGCATAACGGAGTCACCTAGTGCAG | 13500 fluorescence intensity (a.u.) |
| AGTTTTGATAATCAAATTACATTTTATTTATACATACTTACGGAGTCACCTAGTGCAG | 14400 fluorescence intensity (a.u.) |
| GAATTCAGGATGATTGAAAACGTTTGCACTTGAAACATTTCGGAGTCACCTAGTGCAG | 18100 fluorescence intensity (a.u.) |
| GTAACAGAACCAGTGATCTGATAGACAGATATCCAGCAGACGGAGTCACCTAGTGCAG | 5870 fluorescence intensity (a.u.) |
| AATTAATCAATGCGCTAATTACTTATCTTGTTATAGCTGACGGAGTCACCTAGTGCAG | 48800 fluorescence intensity (a.u.) |

| Sequence | binding signal |
| --- | --- |
| ATTTAACAATGGATTAATTAGACTTAATAAATCCATCTCGCGGAGTCACCTAGTGCAG | 18700 fluorescence intensity (a.u.) |
| ACCAACTATTGCGCTGATTGATTAGTCGTGTGCTTGTTTGCGGAGTCACCTAGTGCAG | 51300 fluorescence intensity (a.u.) |
| TATAAATTTTAGCTATTTATAAATTGTATTCCTAGTTGAACGGAGTCACCTAGTGCAG | 6440 fluorescence intensity (a.u.) |
| GTCATTGATTGATCAAGGGATCAATGCAAAACAACGCATTCGGAGTCACCTAGTGCAG | 20300 fluorescence intensity (a.u.) |
| CACCCAATTATCATCATCCTCAAATCAATTGAAAACTTGCCGGAGTCACCTAGTGCAG | 18100 fluorescence intensity (a.u.) |
| TTTGTATCAAATTGGAACTAGTAACCAATCCCAATTTAGACGGAGTCACCTAGTGCAG | 3450 fluorescence intensity (a.u.) |
| CATCTCCAAATTGAACCAATCCCAGAAAATTAATCGGTCACGGAGTCACCTAGTGCAG | 11400 fluorescence intensity (a.u.) |
| AATAGATGGATGGATGGATGGATAGGTACTCCAGATAGATCGGAGTCACCTAGTGCAG | 6110 fluorescence intensity (a.u.) |
| CCATAGAGTCACTGATATAATTATATGAACAGATAGTGTCCGGAGTCACCTAGTGCAG | 6940 fluorescence intensity (a.u.) |
| GTGACAGTTAAATACTAAATGACCGGTGTTCGGAAAAGAACGGAGTCACCTAGTGCAG | 3900 fluorescence intensity (a.u.) |
| GTAATAATTAAAACTTAATTAATCATATGCTAATAGCTTTCGGAGTCACCTAGTGCAG | 30300 fluorescence intensity (a.u.) |
| TTAATTGATAAACATGTAAGACTAAATTTGATATATAACTCGGAGTCACCTAGTGCAG | 40000 fluorescence intensity (a.u.) |
| ACGATGATCATGACATACACGAATTGTGTGGTTAGAACTCCGGAGTCACCTAGTGCAG | 3400 fluorescence intensity (a.u.) |
| TTCGGAATTTTAATTAATATATTTTGGGTTGATGATGGAGCGGAGTCACCTAGTGCAG | 18200 fluorescence intensity (a.u.) |
| TTTTAATTCTTGCTCCTGATTGAATCGCATCCCTCGACCACGGAGTCACCTAGTGCAG | 22200 fluorescence intensity (a.u.) |
| GTTTAATTTATTTCACAAGTTTAAGTGTATATCATGTTAGCGGAGTCACCTAGTGCAG | 31000 fluorescence intensity (a.u.) |
| TCGCTTTGATTGACACTAAGAACCTCGCTGCGCATCTCGTCGGAGTCACCTAGTGCAG | 58600 fluorescence intensity (a.u.) |
| AACAATGCTTCTCTAATTGGTATATGTCGAGCCTTTTGCTCGGAGTCACCTAGTGCAG | 4060 fluorescence intensity (a.u.) |
| TTTAATTCATTATATAATTTAAACGTAATTTGTGGTCACACGGAGTCACCTAGTGCAG | 27400 fluorescence intensity (a.u.) |
| TCAAATTTGAGTTGAAAATTTTCAAATTTTAAGCTGAAAGCGGAGTCACCTAGTGCAG | 4690 fluorescence intensity (a.u.) |
| AAGATTGGGCTGTTCATTAATCAAATTATTCTATGTGTCTCGGAGTCACCTAGTGCAG | 11900 fluorescence intensity (a.u.) |
